The list shows a part of the results.

The assay concerns HSkMC (human skeletal muscle cells). Nature of the assay: cytotoxicity call (relative viability < 0.9). As to conditions: 10 µM.
With `O=C(C[C@H]1CC[C@H]2[C@@H](COC[C@H](O)CN2C(=O)c2cccnc2)O1)NCc1ccc(-c2ccccc2)cc1`, the cytotoxicity call is “inactive”.

Consider `C[C@@H]1CCCCO[C@@H](CN(C)C(=O)Nc2ccccc2)[C@H](C)CN([C@@H](C)CO)C(=O)c2cc(NS(=O)(=O)c3ccccc3)ccc2O1`, for which the cytotoxicity call was “inactive”. Next, `CC1(C)N=C(N)N=C(N)N1c1ccccc1`: “inactive”. With `C[C@@H]1CN([C@H](C)CO)C(=O)c2ccccc2-c2ccccc2CO[C@H]1CN(C)C(=O)Nc1cccc(F)c1`, the cytotoxicity call was “inactive”.

For the molecule `C[C@H](CO)N1C[C@H](C)[C@H](CN(C)Cc2ccncc2)OCCCC[C@H](C)Oc2ccc(NS(C)(=O)=O)cc2C1=O`, the cytotoxicity call was “inactive”.

Turning to `C[C@@H]1CCCCO[C@H](CN(C)S(=O)(=O)c2cn(C)cn2)[C@@H](C)CN([C@@H](C)CO)C(=O)c2cc(NS(C)(=O)=O)ccc2O1`, the cytotoxicity call is “inactive”. For `COc1ccc(S(=O)(=O)Nc2ccc3c(c2)C(=O)N([C@H](C)CO)C[C@H](C)[C@H](CN(C)C(=O)Nc2ccc(C(F)(F)F)cc2)OCCCC[C@@H](C)O3)cc1` the value was “inactive”; for `C[C@@H]1CN([C@H](C)CO)C(=O)c2cccc(NS(=O)(=O)c3ccccc3)c2O[C@@H]1CN(C)C(=O)Nc1cccc2ccccc12`, “inactive”. For `C[C@H]1CN([C@@H](C)CO)C(=O)c2cccc(NC(=O)Nc3cccc4ccccc34)c2O[C@H]1CN(C)Cc1ccc(Cl)c(Cl)c1`, the cytotoxicity call was “inactive”. For `Cc1cn(CCN2CCN(c3ccccc3-c3cc(C#N)cc(C(=O)NCCCN4CCCC4)c3)CC2)c2ccccc12` the value was “active”. Next, `C[C@@H]1CCCCO[C@@H](CN(C)C(=O)NC2CCCCC2)[C@@H](C)CN([C@H](C)CO)C(=O)c2cc(NS(=O)(=O)c3ccc(Cl)cc3)ccc2O1`: “inactive”.

Take `COCC(=O)Nc1ccc2c(c1)OC[C@@H](C)N(C(=O)Cc1cccnc1)C[C@H](C)[C@@H](OC)CN(C)C2=O`: the cytotoxicity call is “inactive”. Regarding `CCOC(=O)C(C#N)C1=NCCC1` (centres undefined), the cytotoxicity call was “inactive”.

`C[C@H](CO)N1C[C@H](C)[C@@H](CN(C)C(=O)Nc2ccc3c(c2)OCO3)OCCCC[C@H](C)Oc2ccc(NC(=O)c3ccncc3)cc2C1=O`: the cytotoxicity call was “inactive”. Next, `C[C@H](CO)N1C[C@H](C)[C@H](CN(C)Cc2ccc(C(=O)O)cc2)OCc2ccccc2-c2c(n(C)c3ccccc23)C1=O`: “inactive”; `C[C@@H]1CN([C@@H](C)CO)C(=O)Cc2cc(NC(=O)Cn3cnnn3)ccc2O[C@H]1CN(C)Cc1ccc(C(=O)Nc2ccccc2N)cc1`: “inactive”. In the case of `C[C@@H]1CN([C@H](C)CO)C(=O)c2cc(NC(=O)Cc3cn(C)c4ccccc34)ccc2O[C@@H]1CN(C)Cc1ccc(C(=O)Nc2ccccc2N)cc1`, the cytotoxicity call was “inactive”. Next, `COc1ccccc1S(=O)(=O)N1C[C@H](O)COC[C@H]2O[C@@H](CC(=O)O)CC[C@@H]21`: “inactive”; `C[C@@H]1CCCCO[C@H](CN(C)S(=O)(=O)c2ccccc2)[C@H](C)CN([C@@H](C)CO)C(=O)c2cc(NS(=O)(=O)c3ccc(Cl)cc3)ccc2O1`: “inactive”; `C[C@H]1CN([C@@H](C)CO)C(=O)Cc2cc(NC(=O)CCCCCC(=O)Nc3ccccc3N)ccc2O[C@@H]1CN(C)C(=O)Nc1ccccc1`: “inactive”. For `C[C@@H]1CN([C@H](C)CO)S(=O)(=O)c2ccc(C#CC3CC3)cc2O[C@H]1CN(C)C(=O)Cc1ccncc1`, the cytotoxicity call is “inactive”. Next, `C[C@@H]1CN([C@@H](C)CO)C(=O)c2cccc(NC(=O)c3ccc(-c4nccs4)cc3)c2O[C@H]1CN(C)Cc1ccc(C(F)(F)F)cc1`: “inactive”; `O=C(C[C@H]1CC[C@H]2NC[C@@H](O)COC[C@@H]2O1)NCCN1CCCC1`: “inactive”. Next, `O=C(C[C@@H]1CC[C@@H]2[C@H](COC[C@@H](O)CN2C(=O)c2cccnc2)O1)NCc1ccc(-c2ccccc2)cc1`: “inactive”; `CCOC(=O)[C@H]1[C@@H]2C=C[C@]3(O2)[C@H](C(=O)NCc2ccccc2)N(Cc2cc(OC)cc(OC)c2)C(=O)[C@@H]13`: “inactive”. Next, `COc1cccc2c1C(=O)c1c(O)c3c(c(O)c1C2=O)C[C@@](O)(C(C)=O)C[C@@H]3O[C@H]1C[C@H](N)[C@H](O)[C@H](C)O1`: “active”; `CC(C)N(C[C@H]1O[C@@H](n2cnc3c(N)ncnc32)[C@H](O)[C@@H]1O)[C@H]1C[C@@H](CCc2nc3ccc(C(C)(C)C)cc3[nH]2)C1`: “inactive”. For `OC[C@H]1O[C@@](CO)(O[C@@H]2O[C@H](CO)[C@@H](O)[C@H](O)[C@H]2O)[C@@H](O[C@@H]2O[C@H](CO)[C@@H](O)[C@H](O)[C@H]2O)[C@@H]1O`, the cytotoxicity call is “inactive”.

Consider `C[C@@H]1CN([C@@H](C)CO)C(=O)c2cc(NC(=O)NC3CCCCC3)ccc2O[C@@H](C)CCCCO[C@@H]1CN(C)Cc1ccncc1`, for which the cytotoxicity call is “inactive”.

Source of the values: the antibiotic and cytotoxicity screens of Wong et al. (2023).
